Reference: the supplement of paper PMC4967469

Experiments:
Test in all cases: Viability of human cancer cell lines after 72 h of drug (GDSC screen)
Trametinib = compound: CC(=O)Nc1cccc(-n2c(=O)n(C3CC3)c(=O)c3c(Nc4ccc(I)cc4F)n(C)c(=O)c(C)c32)c1 [Trametinib]; details: top dose 1 µM
Method: (§1)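 Human cancer cell lines in 384-well plates, medium with 10% serum, drug for 72 h over a 256-fold dose range (nine 2-fold or five 4-fold steps up to the top dose). Adherent lines were fixed and stained with the nucleic acid dye Syto60, suspension lines read with resazurin; signal relative to control wells, capped at 0 and 100%. One two-parameter sigmoid per drug and line, fitted in a mixed model over all curves with the slope shared within a line.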

PF-4708671 = compound: CCc1cncnc1N1CCN(Cc2nc3ccc(C(F)(F)F)cc3[nH]2)CC1 [PF-4708671]; details: top dose 10 µM; top dose inferred
Method: as §1

HG-6-64-1 = compound: CCN1CCN(Cc2ccc(NC(=O)c3ccc(C)c(/C=C/c4cnc5[nH]ccc5c4OC)c3)cc2C(F)(F)F)CC1 [HG-6-64-1]; details: top dose 5.12 µM; top dose inferred
Method: as §1

I-BET-762 = compound: CCNC(=O)C[C@@H]1N=C(c2ccc(Cl)cc2)c2cc(OC)ccc2-n2c(C)nnc21 [I-BET-762]; details: top dose 20 µM; top dose inferred
Method: as §1

MS-275 = compound: Nc1ccccc1NC(=O)c1ccc(CNC(=O)OCc2cccnc2)cc1 [MS-275]; details: top dose 5 µM; top dose inferred
Method: as §1

KIN001-244 = compound: O=C(NC(COc1ccc2[nH]c(=O)[nH]c2c1)c1ccccc1)c1cccn(Cc2ccc(F)c(F)c2)c1=O [KIN001-244]; details: top dose 20 µM; top dose inferred
Method: as §1

AV-951 = compound: COc1cc2nccc(Oc3ccc(NC(=O)Nc4cc(C)on4)c(Cl)c3)c2cc1OC [AV-951]; details: top dose 0.128 µM; top dose inferred
Method: as §1

| Cell Line | AUC (Trametinib) | pIC50 (Trametinib) | AUC (PF-4708671) | pIC50 (PF-4708671) | AUC (HG-6-64-1) | pIC50 (HG-6-64-1) | AUC (I-BET-762) | pIC50 (I-BET-762) | AUC (MS-275) | pIC50 (MS-275) | AUC (KIN001-244) | pIC50 (KIN001-244) | AUC (AV-951) | pIC50 (AV-951) |
| --- | --- | --- | --- | --- | --- | --- | --- | --- | --- | --- | --- | --- | --- | --- |
| NCI-SNU-1 (stomach, suspension) | 0.911 | < 6.00 | 0.922 | < 5.00 | 0.696 | 5.94 | 0.795 | 5.02 | 0.903 | < 5.30 | 0.824 | 4.91 | 0.981 | < 6.89 |
| NCI-SNU-5 (stomach, suspension) | 0.76 | 6.45 | 0.987 | < 5.00 | 0.988 | < 5.29 | 0.989 | < 4.70 | 0.844 | 5.44 | 0.937 | < 4.70 | 0.989 | < 6.89 |
| NCI-SNU-16 (stomach, suspension) | 0.954 | < 6.00 | 0.911 | < 5.00 | 0.949 | < 5.29 | 0.991 | < 4.70 | 0.867 | 5.44 | 0.974 | < 4.70 | 0.991 | < 6.89 |
| NKM-1 (acute myeloid leukaemia, suspension) | 0.441 | 7.37 | 0.982 | < 5.00 | 0.287 | 7.11 | 0.611 | 5.59 | 0.385 | 6.83 | 0.428 | 6.10 | 0.923 | < 6.89 |
| NMC-G1 (glioma, adherent) | 0.689 | 6.62 | 0.962 | < 5.00 | 0.698 | 5.88 | 0.963 | < 4.70 | 0.545 | 6.37 | 0.844 | 4.71 | 0.98 | < 6.89 |
| NTERA-2 cl.D1 (testis, adherent) | 0.739 | 6.52 | 0.967 | < 5.00 | 0.389 | 6.80 | 0.803 | 5.01 | 0.445 | 6.65 | 0.919 | < 4.70 | 0.982 | < 6.89 |
| NU-DUL-1 (B-cell lymphoma, suspension) | 0.992 | < 6.00 | 0.991 | < 5.00 | 0.439 | 6.65 | 0.522 | 5.85 | 0.492 | 6.52 | 0.499 | 5.91 | 0.99 | < 6.89 |
| OCI-AML2 (acute myeloid leukaemia, suspension) | 0.011 | > 8.41 | 0.973 | < 5.00 | 0.895 | 5.46 | 0.42 | 6.10 | 0.719 | 5.97 | 0.333 | 6.31 | 0.994 | < 6.89 |

pIC50: −log10 of the molar value. Lines with a small IC50 respond at low doses; where the fit passes the top or lowest dose, that dose stands as a limit. The AUC spans the tested range (256-fold, ending at the top dose) of the same fit; values near 1 show little effect. For some of these results: Where the top dose is marked as inferred, it is not printed in the source and was worked back from the curve model.
